Measured values as given in the BET-seq Pho4 binding data (Le et al. 2018).
Some of the results follow. These are noisy estimates, calculated here from bound and input reads.

What follows are sequences tested against T1, Pho4 (S. cerevisiae) (UniProt P07270) (assay: relative binding free energy (BET-seq); higher = weaker binding). Conditions: reference: library average.
T1 sequence: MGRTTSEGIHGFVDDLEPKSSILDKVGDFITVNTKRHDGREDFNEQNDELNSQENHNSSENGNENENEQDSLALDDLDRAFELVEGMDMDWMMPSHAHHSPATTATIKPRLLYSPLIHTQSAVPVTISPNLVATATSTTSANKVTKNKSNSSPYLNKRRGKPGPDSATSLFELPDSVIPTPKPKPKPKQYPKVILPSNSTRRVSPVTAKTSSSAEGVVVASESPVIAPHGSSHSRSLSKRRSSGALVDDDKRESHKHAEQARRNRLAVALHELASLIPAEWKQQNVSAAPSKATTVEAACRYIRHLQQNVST

Sequence | relative binding free energy
ACTGTCACGTGACGGG | 0.22 kcal/mol
AATTTCACGTGTTGCT | 0.19 kcal/mol
TCTTGCACGTGATATA | 0.13 kcal/mol
GCTTGCACGTGATGTG | 0.17 kcal/mol
AGGAGCACGTGGATTG | -0.16 kcal/mol
CGGTTCACGTGGTAAT | 0.3 kcal/mol
AGGAGCACGTGTTGTG | -0.04 kcal/mol
GTGGCCACGTGGGTAG | -0.16 kcal/mol
GAGGTCACGTGGGTAG | 0.12 kcal/mol
TTGTTCACGTGCTTCG | 0.14 kcal/mol
GTCGACACGTGGTGGT | -0.01 kcal/mol
TCAGGCACGTGGTTTG | -0.09 kcal/mol
GTCGACACGTGGGGCT | -0.06 kcal/mol
TGGATCACGTGTTGGA | 0.24 kcal/mol
GCGTTCACGTGAAAGT | 0.36 kcal/mol
TGTGACACGTGAGTAT | 0.12 kcal/mol
GATAGCACGTGCAGGT | 0.01 kcal/mol
CCTGGCACGTGTGGCG | -0.04 kcal/mol
TAGGACACGTGCTGGG | -0.05 kcal/mol
GTTATCACGTGTTAAG | 0.26 kcal/mol
GGGGTCACGTGTAAAG | 0.28 kcal/mol
ATCTGCACGTGGAGAT | 0.09 kcal/mol
GAGGGCACGTGTTATT | -0.1 kcal/mol

Sequence | relative binding free energy
TCTTGCACGTGGTAGT | -0.01 kcal/mol
TGCAACACGTGGGGGA | -0.03 kcal/mol
AAGGACACGTGGGAGA | 0.06 kcal/mol
TATACCACGTGAGGGT | 0.12 kcal/mol
GGTATCACGTGAGACG | 0.35 kcal/mol
TAATTCACGTGCTGGT | 0.37 kcal/mol
TTAGTCACGTGTATTA | 0.04 kcal/mol
CCTTGCACGTGCGGGT | 0 kcal/mol
CGGGTCACGTGGGTAG | -0.04 kcal/mol
GTTGGCACGTGTTGGT | 0.08 kcal/mol
ATTGGCACGTGTAACT | 0.02 kcal/mol
AGTTACACGTGGAGGG | 0.22 kcal/mol
GACATCACGTGGTGTT | 0.07 kcal/mol
ATTGTCACGTGTAGTT | 0.06 kcal/mol
ATGATCACGTGGTAGA | 0.26 kcal/mol
GAAAGCACGTGATTGT | 0.28 kcal/mol
TGAAACACGTGGATGT | 0.06 kcal/mol
GGTCTCACGTGGATTG | 0.12 kcal/mol
AGTCGCACGTGAGCGT | 0.18 kcal/mol
TCTTGCACGTGTGAAG | 0.12 kcal/mol
AAGGTCACGTGGTTTC | 0.03 kcal/mol
GGAGTCACGTGGTCGT | 0.07 kcal/mol
GTTGGCACGTGGCTTG | -0.05 kcal/mol

Sequence | relative binding free energy
TGGTGCACGTGGACCG | -0.05 kcal/mol
TACGGCACGTGTGGGG | -0.04 kcal/mol
GTAGACACGTGAAGGT | 0.36 kcal/mol
TCTGTCACGTGTATGA | 0.11 kcal/mol
CATTACACGTGTGGGG | 0.11 kcal/mol
GCTGGCACGTGGTGCG | -0.14 kcal/mol
TGTAACACGTGTGGCA | 0.07 kcal/mol
TTAGTCACGTGGTAGA | -0.05 kcal/mol
AGGATCACGTGGAGGG | 0.07 kcal/mol
GAAAGCACGTGGAGTT | 0.07 kcal/mol
CGTGGCACGTGTGATT | 0.06 kcal/mol
TTTGGCACGTGCAGCA | -0.09 kcal/mol
TAAGGCACGTGTCAGG | -0.18 kcal/mol
TCGGGCACGTGCCGGG | -0.21 kcal/mol
AATAGCACGTGGGTTT | -0.17 kcal/mol
TAATCCACGTGTAAGG | 0.17 kcal/mol
GGGCTCACGTGAAGGG | 0.28 kcal/mol
TGGCTCACGTGGAGAG | 0.12 kcal/mol
ATTTGCACGTGCTAGG | 0.09 kcal/mol
GAAATCACGTGTATGT | 0.14 kcal/mol
TAATACACGTGTGTGG | 0.08 kcal/mol
TGGGGCACGTGTGGAT | 0.06 kcal/mol
GGCTTCACGTGTGGTA | 0.23 kcal/mol

Sequence | relative binding free energy
TAATTCACGTGTTCTA | 0.3 kcal/mol
GGTGTCACGTGTCAGC | 0.08 kcal/mol
GTGGGCACGTGCTAGG | -0.23 kcal/mol
TGCTGCACGTGGAGTA | -0.07 kcal/mol
GCAGGCACGTGGGTGA | -0.29 kcal/mol
GTTGGCACGTGTGCTG | -0.07 kcal/mol
CGATGCACGTGGTTAG | 0.01 kcal/mol
TTTTGCACGTGCACGG | -0.15 kcal/mol
GTACACACGTGGCGGT | 0.09 kcal/mol
ATAGGCACGTGAGTGC | 0.21 kcal/mol
TGTCGCACGTGAGGTT | 0.13 kcal/mol
GGTGACACGTGGGTAC | -0.14 kcal/mol
GTTAGCACGTGATGGC | 0.17 kcal/mol
CGTATCACGTGGCGTA | 0.06 kcal/mol
CAGAGCACGTGAGGTG | 0.06 kcal/mol
AGTGTCACGTGGTGCC | -0.03 kcal/mol
TGCGTCACGTGTGCAG | 0.08 kcal/mol
AAGAGCACGTGGCTGG | -0.1 kcal/mol
GGTTTCACGTGCGGAA | 0.17 kcal/mol
TTATTCACGTGGGCCT | 0.13 kcal/mol
TTATGCACGTGTAGAT | 0.09 kcal/mol
TAAATCACGTGTCATG | 0.26 kcal/mol
GGAGACACGTGGGTGC | -0.18 kcal/mol

Sequence | relative binding free energy
GTCGGCACGTGATATG | 0.08 kcal/mol
GTCGTCACGTGGGTGG | 0.12 kcal/mol
AGATTCACGTGGTGGT | 0.1 kcal/mol
GTTCGCACGTGACGGG | 0.02 kcal/mol
TTTAACACGTGGGCAT | -0.14 kcal/mol
ATGTGCACGTGAGTTC | 0.12 kcal/mol
TTGTACACGTGATGAG | 0.04 kcal/mol
CTTAGCACGTGGTAGG | -0.18 kcal/mol
ATAGGCACGTGGCGCG | -0.22 kcal/mol
TAGGGCACGTGGATTG | 0 kcal/mol
GTGGGCACGTGGTACA | -0.16 kcal/mol
TTCATCACGTGTTGTG | 0.07 kcal/mol
GTGTTCACGTGGAGGT | 0.24 kcal/mol
AGTTGCACGTGCGGGT | 0 kcal/mol
GATGTCACGTGTTAAA | 0.17 kcal/mol
TGGGACACGTGGTGCG | -0.17 kcal/mol
ATTATCACGTGTATGA | 0.23 kcal/mol
TGTTACACGTGGTTGC | 0.06 kcal/mol
CGGGGCACGTGAGGCT | 0.14 kcal/mol
TACCGCACGTGTTAGG | 0.11 kcal/mol
GAGTGCACGTGGTTTT | 0.11 kcal/mol
TATACCACGTGGGTTA | -0.18 kcal/mol
GGCATCACGTGGAGAG | 0.25 kcal/mol
